# Among all 310,000 compounds or so, about 2,200 (0.71%) showed an effect of 50% or more. The effect is printed as a negative number. The list shows a part of the results.
# Target: human ether-à-go-go-related gene (hERG) potassium channel (human, UniProt Q12809)
# Assay: primary screen, population patch clamp on CHO cells stably expressing hERG
# Chain of human ether-à-go-go-related gene (hERG) potassium channel (Q12809 whole entry, looked up): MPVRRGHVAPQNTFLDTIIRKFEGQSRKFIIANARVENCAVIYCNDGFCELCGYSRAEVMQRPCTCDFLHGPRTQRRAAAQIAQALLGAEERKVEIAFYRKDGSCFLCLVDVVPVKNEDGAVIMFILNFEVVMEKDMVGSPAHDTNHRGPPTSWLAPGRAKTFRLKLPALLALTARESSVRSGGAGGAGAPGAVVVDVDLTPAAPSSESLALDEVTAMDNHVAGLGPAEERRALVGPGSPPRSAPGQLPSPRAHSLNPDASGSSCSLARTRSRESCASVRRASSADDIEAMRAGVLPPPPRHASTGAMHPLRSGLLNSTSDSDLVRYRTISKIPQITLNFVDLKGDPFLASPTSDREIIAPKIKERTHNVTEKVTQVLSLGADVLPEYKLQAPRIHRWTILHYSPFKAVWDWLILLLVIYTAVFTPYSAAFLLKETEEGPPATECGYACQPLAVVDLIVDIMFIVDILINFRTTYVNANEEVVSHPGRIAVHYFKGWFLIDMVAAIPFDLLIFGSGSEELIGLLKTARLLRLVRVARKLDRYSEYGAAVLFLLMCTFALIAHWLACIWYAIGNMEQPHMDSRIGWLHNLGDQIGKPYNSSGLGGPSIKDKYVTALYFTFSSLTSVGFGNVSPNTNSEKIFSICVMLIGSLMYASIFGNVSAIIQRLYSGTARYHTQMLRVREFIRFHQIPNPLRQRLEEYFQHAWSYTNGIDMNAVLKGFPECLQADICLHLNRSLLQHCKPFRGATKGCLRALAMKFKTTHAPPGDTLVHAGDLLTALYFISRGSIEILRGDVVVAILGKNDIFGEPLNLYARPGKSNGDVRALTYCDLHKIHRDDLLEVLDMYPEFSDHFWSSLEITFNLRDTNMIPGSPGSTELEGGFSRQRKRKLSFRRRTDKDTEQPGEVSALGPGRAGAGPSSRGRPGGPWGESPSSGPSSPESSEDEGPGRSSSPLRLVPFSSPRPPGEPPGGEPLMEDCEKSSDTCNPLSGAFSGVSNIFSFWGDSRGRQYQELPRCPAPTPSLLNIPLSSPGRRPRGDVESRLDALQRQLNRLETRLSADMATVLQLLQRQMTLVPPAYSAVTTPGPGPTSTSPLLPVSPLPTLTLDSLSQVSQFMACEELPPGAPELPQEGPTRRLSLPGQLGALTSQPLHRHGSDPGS
row,Structure (SMILES),"hERG current change (%, negative = inhibition) at 1uM [%]"
1,COc1cc(CCCN2C(N)=NC[C@@H]2Cc2ccc(O)cc2)cc(OC)c1OC,17.3
2,O=C(NC1=NCCS1)C12CC3CC(C1)CC(C(=O)NC1=NCCS1)(C3)C2,20.6
3,Cc1nn2c(=O)c(NC(=O)c3ccc(F)cc3)cnc2s1,14.9
4,CC(=O)C(C)Oc1ncn(-c2ccccc2)n1 (stereo not shown),7.61
5,Cc1cccc(C(=O)Nc2ccc(N3CCN(c4ccc(C(F)(F)F)cn4)CC3)nc2)c1,12.9
6,O=C(Nc1ccon1)Nc1cc(Cl)ccc1Cl,3.97
7,Clc1ccc(-c2nnc(-c3ccc(Br)o3)o2)c(Cl)c1,7.1
8,Cc1cc(C)c(NC(=O)CNC(=O)c2cc(C3CC3)nn2-c2ccccc2)c(C)c1,3.93
9,COc1ccc(NC(=O)N2CCCC(c3nc(-c4ccc(F)cc4)no3)C2)cc1 (stereo not shown),6.57
10,O=[N+]([O-])c1cc([N+](=O)[O-])c2nonc2c1Nc1ccc(O)cc1,2.03
11,COc1ccccc1C(=O)COC(=O)c1ccc(-n2cnnn2)cc1,11.9
12,C/C(=N/NC(=O)CNC(=O)CCc1ccccc1)c1ccc(Cl)cc1,3.37
13,COCCN(C(=O)Cc1cccs1)c1nnc(-c2cccnc2)s1,7.1
14,Nc1nc(SCC(=O)c2cc3ccccc3o2)n[nH]1,-0.91
15,O=C(CCc1ccccc1)NNC(=O)c1ccc(Br)cc1,11
16,Cc1ccc(CSCCNC(=O)CN(c2cc(C)ccc2C)S(C)(=O)=O)cc1,-12.4
17,CCCOc1ccc(NC(=O)CNC(=O)c2cc(OC)cc(OC)c2)cc1OCCC,10.4
18,O=C1c2ccccc2C(Nc2ccc(Cl)cn2)N1Cc1ccccc1 (stereo not shown),13.2
19,CCOC(=O)C1(CCOc2ccccc2)CCN(Cc2cccc3c2OCO3)CC1,-7.1
20,COc1ccc(/C=N\NC(=O)c2ccccc2Br)cc1COc1ccccc1,2.17
21,c1ccc(-n2ncc3c(N4CCN(CCOc5cccc6ccccc56)CC4)ncnc32)cc1,13.4
22,CCOc1cc(-c2nc(-c3cc(OC)c(OC)c(OC)c3)no2)cc(OCC)c1OCC,18.5

row,Structure (SMILES),"hERG current change (%, negative = inhibition) at 1uM [%]"
1,O=C(COC(=O)Cc1cccs1)Nc1ccccc1Cl,13.9
2,Cc1ccc(-c2nc(-c3ccccn3)no2)cc1[N+](=O)[O-],13.8
3,COc1ccc(C(=O)NNC(=S)NC(=O)C(C)(C)C)cc1,11.5
4,N#Cc1nc(-c2ccccc2)oc1N1CCC(C(N)=O)CC1,16.8
5,Cc1ccc2nc(-c3ccc(NC(=S)NCCC(C)C)cc3)sc2c1,6.84
6,COc1ccc(Cc2nnc(N/N=C/c3ccccc3O)[nH]c2=O)cc1OC,-0.0106
7,COc1ccc(S(=O)(=O)N2CCN(C(=O)NCc3ccc(C)cc3)CC2)cc1,14.9
8,O=C(O)C1CC(=O)N(CCc2ccccc2)C1 (stereo not shown),11
9,O=C(CN1CCC(NC(=O)c2ccccc2F)CC1)Nc1ccc2c(c1)OCO2,1.39
10,O=C(Nc1ccc(F)cc1F)N1CCCN(c2ccc(C(F)(F)F)cn2)CC1,0.582
11,Cn1c(=O)c2cc(S(=O)(=O)NC(Cc3ccccc3)C(=O)NCc3ccco3)ccc2n(C)c1=O (stereo not shown),-8.41
12,CC1CC(C)CN(c2cc(=O)n(Cc3ccc(F)cc3)c(=O)[nH]2)C1 (stereo not shown),17.9
13,CCN(Cc1ccccc1)S(=O)(=O)c1ccc(C(=O)N(CCCN(C)C)c2nc3c(C)c(C)ccc3s2)cc1.Cl,-1.23
14,COc1cc(C2=NOC(C(=O)Nc3cccnc3)C2)cc(OC)c1OC (stereo not shown),11.3
15,COc1ccc(CCNC(=O)C2CCCN2C(=O)Nc2ccccc2)cc1OC (stereo not shown),13.9
16,Cn1cnnc1SCCn1c(N2CCCCC2)nc2c1c(=O)[nH]c(=O)n2C,0.157
17,Cc1ccc(-c2nnc(N3CCN(c4ccccn4)CC3)c3ccccc23)cc1,11.1
18,CN(Cc1nccn1C)C(=O)CCc1nnc(CCC2CCCCC2)o1,-3.81
19,CCn1cc(SCC(=O)NCc2ccc3c(c2)OCO3)c2ccccc21,13.5
20,CCOC(=O)NC(=O)CSc1nc(C)cc(C(F)(F)F)c1C#N,2.33
21,O=C1N[C@H](Cc2ccccc2)C(=O)N2[C@@H]3[C@H](C[C@@H]12)c1ccccc1N3OOSc1ccccc1,6.05
22,O=C1CNC(=S)N1Cc1ccccc1,28.9

row,Structure (SMILES),"hERG current change (%, negative = inhibition) at 1uM [%]"
1,Cc1ccc(NC(=O)C2CCN(C(=O)c3cccs3)CC2)c(C)c1,13.6
2,CC1CCC(NC(=O)C(NC(=O)c2ccccc2)C(C)C)CC1 (stereo not shown),6.61
3,O=C(N/N=C/c1ccc(N2CCOCC2)s1)c1ccc(NS(=O)(=O)c2cccs2)cc1,6.28
4,CCCN(CC1CC1)C(=O)CCc1nnc(C(OC)c2ccccc2)o1 (stereo not shown),10
5,Cc1nc2ccc(C(=O)N(C)CC3CCCN(CCc4ccc(Cl)cc4)C3)cc2[nH]1 (stereo not shown),-0.55
6,O=C(c1cc2c(F)cccc2s1)N1CCCC1,13
7,Cc1cc(F)c(F)c(C(=O)N2CCOCC2)c1,5.97
8,Cc1ccc(-n2ncc3c(=O)n(CC(=O)N4CCCCCC4)cnc32)cc1,10.9
9,CCCc1cc(=O)[nH]c(SCC(=O)Nc2ccc(Cl)c(S(=O)(=O)N3CCOCC3)c2)n1,10.8
10,Cc1cc(F)ccc1S(=O)(=O)N1CCCOC1CNC(=O)C(=O)NCCC1=CCCCC1 (stereo not shown),11.3
11,CCC(CO)Nc1ncc([N+](=O)[O-])cc1C#N (stereo not shown),12.7
12,O=C(NCc1ccccc1)c1ccc(CS(=O)(=O)c2ccccc2)o1,13.6
13,COc1cc(NC(=O)c2cc(-c3ccccc3Cl)on2)cc(OC)c1OC,-2.27
14,O=C(Cn1nnc(-c2ccccc2)n1)N/N=C/c1cc([N+](=O)[O-])ccc1O,9.92
15,COc1ccc(C(=O)Oc2ccc(N(C)S(=O)(=O)c3ccccc3)cc2)cc1[N+](=O)[O-],11
16,Cc1ccccc1-n1c(O)c(/C=C2/C(c3ccccc3)=Nc3ccccc32)c(=O)[nH]c1=O,-4.59
17,ClCC1NCC(c2ccccc2Cl)c2c1[nH]c1ccccc21 (stereo not shown),11.7
18,COCCN(C(=O)Cc1cccs1)C(C(=O)NCc1ccc(OC)cc1)c1ccc(OC)cc1 (stereo not shown),8.44
19,O=C(c1cc(Cl)nc2ccccc12)N1CCN(Cc2ccc3c(c2)OCO3)CC1,0.571
20,O=C(Nc1cccc2cccnc12)C1CCCC1,-5.58
21,O=C1C(NS(=O)(=O)c2cccs2)=C(N2CCN(c3ccccc3)CC2)C(=O)c2ccccc21,13.3
22,NC(=O)c1c(NC(=O)c2cccc(N3C(=O)CCC3=O)c2)sc2c1CCCCC2,14.2

row,Structure (SMILES),"hERG current change (%, negative = inhibition) at 1uM [%]"
1,COc1ccc(Oc2nccc(-c3ccccc3)c2C#N)cc1,-2.36
2,Cc1c(NC(=O)c2cc(-c3ccc(O)cc3)on2)c(=O)n(-c2ccccc2)n1C,7.15
3,COc1ccccc1CN1C(=O)CNC1=S,10.1
4,CN1CCN(c2ccc([N+](=O)[O-])cc2C(=O)c2ccc(Br)cc2)CC1,-36.8
5,Cc1ccc(N2CCN(/N=C/C(Cl)=C/c3ccccc3)CC2)cc1,4.95
6,Cc1ccc(OCCC(=O)Nc2ccc(F)c(Cl)c2)cc1,6.79
7,Cc1c(Cl)cccc1NC(=O)CNC(=O)C1CCN(C(=O)Nc2ccccc2)CC1,11.1
8,CCS(=O)(=O)c1ccc(O)c(NC(=O)c2cc(OC)c(OC)c(OC)c2)c1,6.58
9,CSc1sc(C)cc1C=O,9.96
10,COc1ccc(C(=O)COC(=O)C2CCC(=O)N2)cc1 (stereo not shown),7.28
11,CC(C)(CC(=O)O)CC(=O)N1CCN(c2cc(C(F)(F)F)nc3ccccc23)CC1,13.2
12,C/C=C/c1ccc(OCC(=O)NCc2ccccc2OC)c(OC)c1,7.25
13,Cc1cccc(Nc2ncnc3nc[nH]c23)c1,-8.14
14,COc1ccccc1OCCSc1nc(N)cc(N)n1,8.67
15,Cc1cc(NC(=O)c2ccc3c(c2)C(=O)N(c2cccc(C)c2C)C3=O)no1,11.7
16,Cc1nc(NC(=O)C23CCC(C)(C(=O)O2)C3(C)C)sc1C (stereo not shown),3.32
17,CCCCn1c(SCC(=O)/C(C#N)=C(\C)N)nc2ccccc2c1=O,6.99
18,CC(=O)OCC1(C)CN(c2ccccc2)NC1=O (stereo not shown),11
19,CCOP(=O)(OCC)c1nc(-c2cccc3ccccc23)oc1NCc1ccc(OC)cc1,4.52
20,N#CCCn1cc(/C=N/NC(N)=S)c(-c2ccc(Br)cc2)n1,3.49
21,CCCCn1c(-c2cccc(F)c2)nc2c1c(=O)[nH]c(=O)n2CC(C)C,9.01
22,CCc1nccn1CCC(=O)N1CCc2c([nH]c3ccccc23)C1CC(C)C (stereo not shown),3.53

# From publication PMC4336329 (PLoS ONE, 2015)
